Reference: PubChem BioAssay AID624417 (National Center for Advancing Translational Sciences (NCATS), 2012)
About 6,400 (1.6%) of roughly 410,000 compounds were called active. Inconclusive results, whose numbers are uncertain, are shown with a selection of clear calls. Calls follow the shape of the dose curve; as a rule, active = well fitted inhibition curve with a large enough effect; inconclusive = small, poorly fitted or top-dose-only effect; inactive = no such curve, though single readings can be large or run the other way. Potencies of inconclusive entries are doubtful fits and often do not repeat.

These compounds were tested against Glucagon-like peptide 1 receptor (Homo sapiens) (UniProt P43220) (assay: qHTS of GLP-1 Receptor Inverse Agonists (Inhibition Mode)). Conditions: HEK293 GLP-1R CRE-luciferase, luminescence, 24 h, GLP-1R form is constitutively active; activity change, negative = inhibition: at 38.3 µM (top of the series) unless noted.
Sequence of UniProt P43220 (P43220 whole entry, looked up): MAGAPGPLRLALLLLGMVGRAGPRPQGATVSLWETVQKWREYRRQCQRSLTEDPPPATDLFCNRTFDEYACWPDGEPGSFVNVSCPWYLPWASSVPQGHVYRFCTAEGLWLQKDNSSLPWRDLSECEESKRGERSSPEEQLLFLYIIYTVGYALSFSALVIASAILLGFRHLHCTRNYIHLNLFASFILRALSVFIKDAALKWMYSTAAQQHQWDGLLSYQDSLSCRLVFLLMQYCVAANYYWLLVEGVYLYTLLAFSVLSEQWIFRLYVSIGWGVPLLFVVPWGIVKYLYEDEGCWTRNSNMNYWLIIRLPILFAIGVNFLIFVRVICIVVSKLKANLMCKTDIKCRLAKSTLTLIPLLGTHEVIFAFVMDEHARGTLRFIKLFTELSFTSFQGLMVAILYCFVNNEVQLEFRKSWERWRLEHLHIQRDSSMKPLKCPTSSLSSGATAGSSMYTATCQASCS
How it was run: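 Seeding at 200 cells/uL, 12 h culture, 24 hr compound treatment, then luciferase reagent and a luminescence read; cells are HEK293 stably expressing a constitutively active GLP-1R plus cAMP-responsive luciferase.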
% is scaled to controls: 0 for no effect and ±100 for the full control effect; potency is read from the fitted curve at half-maximal effect; tags tell the direction and shape of the fitted curve.
Also: nearly all actives have a fitted effect of over 55% in size.

SMILES	Potency	activity change, negative = inhibition
CC(C)[C@H](NC(=O)N1CCn2c1nc1ccccc12)C(=O)NCc1ccc2c(c1)OCO2	inconclusive: 7.94 µM [inhibitor, partial curve, poor fit]	
Cc1[nH]c(C)c(S(=O)(=O)Nc2cccc(Cl)c2C)c1C(=O)N1CCCCC1	inconclusive: 10 µM [inhibitor, partial curve, poor fit]	
CN(CC(=O)NC(=O)NC1CCCCC1)Cc1ccccc1	inconclusive: 28.2 µM [inhibitor, single point]	
CN(Cc1ccccc1)CC(O)COc1ccc(CNCCc2cccnc2)cc1 (stereo not drawn)	inconclusive: 7.08 µM [inhibitor, partial curve, poor fit]	
O=C(NNC(=S)Nc1ccccc1)c1cc(-c2cccnc2)nc2ccccc12		inconclusive: -32.7% [inhibitor] [at 7.66 µM]
CCOC(=O)C1CCCN(C(=S)Nc2ccc(F)cc2)C1 (stereo not drawn)		inactive: 5.65%
COc1ccc(NC(C)=O)cc1NC(=O)C1(c2cccs2)CCOCC1		inactive: 7.52%
CCOC(=O)C1CCC(CN(Cc2ccccc2)S(=O)(=O)c2ccc([N+](=O)[O-])cc2)CC1 (stereo not drawn)	inconclusive: 8.91 µM [inhibitor, partial curve, poor fit]	
CCSc1nc(C)cc(C)c1S(=O)(=O)c1ccccc1C	active: 8.91 µM	
CCN1C(=O)[C@H]2[C@@H](c3ccc(C)cc3)N3C(=O)N(c4cccc(Cl)c4)C(=O)[C@@]3(Cc3ccc(Cl)cc3)[C@H]2C1=O	inconclusive: 2.82 µM [inhibitor, full curve, poor fit]	
Cc1ccc(NC(=O)c2ccc(OCc3c(C)noc3C)cc2)c(C)c1	inconclusive: 10 µM [inhibitor, single point]	
CCC1CCCCN1CCCNC(=O)Cn1nc(C)n2nc(-c3ccccc3)cc2c1=O (stereo not drawn)	inconclusive: 2.51 µM [inhibitor, full curve, poor fit]	
CCOC(=O)C1CCN(Cc2cccc(OCc3ccccc3)c2)CC1	inconclusive: 31.6 µM [inhibitor, single point]	
O=C(COc1ccc2ccccc2c1)NCCc1ccc2c(c1)OCCO2	inconclusive: 12.6 µM [inhibitor, partial curve, poor fit]	
c1ccc2c(c1)CCCN2c1nc(N2CCOCC2)nc(N2CCOCC2)n1	inconclusive: 10 µM [inhibitor, partial curve, poor fit]	
CCn1cc(/C=C(\NC(=O)c2ccc(C)cc2)C(=O)NCCCn2ccnc2)c2ccccc21		inactive: -18.2%
OC(c1ccccc1)c1nc(-c2cc(F)cc(F)c2)cs1 (stereo not drawn)	inconclusive: 28.2 µM [inhibitor, single point]	
NC(Cc1ccc(Cl)cc1)c1csc(Nc2cc(Oc3ccccc3)ncn2)n1 (stereo not drawn)	inconclusive: 28.2 µM [inhibitor, single point]	
CCCc1ccc2oc(C(=O)N3CCN(CC(=O)NC(C)C)CC3)c(C)c2c1	inconclusive: 28.2 µM [inhibitor, single point]	
CCOC(=O)c1cc2c(=O)n3ccccc3nc2n(CC2CCCO2)c1=NC(=O)c1ccccc1C (stereo not drawn)		inactive: 14.6%
O=[N+]([O-])c1ccc(S(=O)(=O)N(CC(O)CN2CCCCC2)c2ccccc2)cc1 (stereo not drawn)		inactive: 1.98%

SMILES	Potency	activity change, negative = inhibition
NS(=O)(=O)c1ccc(NC(=O)/C=C/c2ccc(S(=O)(=O)NCc3ccco3)cc2)cc1	inconclusive: 12.6 µM [inhibitor, single point]	
COc1cc(OC)c(N(C)C(=O)c2c(C)oc3ncnc(N4CCCCC4)c23)cc1Cl		inactive: -17.6%
Cc1c(C(=O)N(CCc2ccccc2)Cc2ccccc2)cccc1[N+](=O)[O-]	inconclusive: 11.2 µM [inhibitor, partial curve, poor fit]	
CC(C)(C)c1cc(NC(=O)c2cccs2)no1		inactive: -5.75%
O=S(=O)(c1ccccc1)[C@@]1(c2ccc(Br)cc2)C[C@@H]2ON=C(c3ccccc3)[C@@H]2C1	inconclusive: 10 µM [inhibitor, single point]	
Cc1ccc([N+](=O)[O-])cc1S(=O)(=O)N(C(=O)c1ccncc1)c1ccc2oc3c(c2c1)CCCC3	inconclusive: 28.2 µM [inhibitor, single point]	
COc1ccc(Nc2ncc(F)c(N3CCOCC3)n2)cc1	inconclusive: 11.2 µM [inhibitor, partial curve, poor fit]	
O=S(=O)(c1ccc(F)cc1)N(CC(O)Cn1c2ccccc2c2ccccc21)c1ccccc1 (stereo not drawn)	inconclusive: 12.6 µM [inhibitor, partial curve, poor fit]	
COc1cc(NC(=O)c2cc(-c3ccc(F)cc3OC(C)C)n[nH]2)cc(OC)c1OC	inconclusive: 28.2 µM [inhibitor, single point]	
CCOC(=O)C1CCCN(CC(=O)Nc2nc(-c3ccccc3)cs2)C1 (stereo not drawn)	inconclusive: 20 µM [inhibitor, single point]	
COc1cccc(CN(C)C(=O)c2cc(-c3cccs3)nc3ccccc23)c1	active: 6.31 µM	
N#Cc1nc(-c2ccco2)oc1N1CCN(C(c2ccccc2)c2ccccc2)CC1	active: 10 µM	
Cc1cccc(C(=O)Oc2ccc(/C=N/NC(=O)c3cc(O)cc(O)c3)cc2)c1	active: 10 µM	
CCc1ccc(OCCOCC(O)CN2CCN(Cc3ccc(Cl)cc3)CC2)cc1 (stereo not drawn)	inconclusive: 8.91 µM [inhibitor, partial curve, poor fit]	
C=CCNC(=O)c1ccc(-c2nc3ccccc3nc2-c2ccccc2)cc1	inconclusive: 28.2 µM [inhibitor, single point]	
O=C(CCC(=O)N1CC2CCCN2c2ccccc21)NCc1ccc(F)cc1 (stereo not drawn)		inactive: -21%
Cc1c(CCO)c(=O)[nH]n1S(=O)(=O)c1ccc(F)cc1	inconclusive: 28.2 µM [inhibitor, single point]	
O=S1(=O)c2ccc(Br)cc2N2CC[C@H](C2)N1Cc1ccc(Cl)cc1	inconclusive: 5.62 µM [inhibitor, full curve, poor fit]	
Cc1cc(Cl)c2c(c1)[C@]1(C(=O)N2)[C@@H]2C(=O)N(Cc3ccccc3)C(=O)[C@@H]2[C@@H]2CCCN21	inconclusive: 28.2 µM [inhibitor, single point]	
C=C(C)COc1ccc(-c2ncncc2Oc2ccc(OC)cc2)c(O)c1	active: 10 µM	
CC(C)(C#CC(O)(c1ccccc1)c1ccccc1)N1CCCC1	inconclusive: 12.6 µM [inhibitor, partial curve, poor fit]	

SMILES	Potency	activity change, negative = inhibition
COc1ccccc1C(=O)NCCC(=O)NC(C)c1ccc(-n2ccnc2)cc1 (stereo not drawn)		inactive: 18.9%
Cc1cc2cc(CNC(=O)c3ccc(Br)o3)ccc2[nH]1		inactive: 1.74%
COC(=O)[C@@]1(Sc2ccc(C)cc2)CC(=O)N(C(=O)/C=C/c2ccccc2)[C@@H]1c1ccccc1	inconclusive: 28.2 µM [inhibitor, single point]	
OCCC1CN(CCCc2ccccc2)CCN1Cc1ccc(F)cc1 (stereo not drawn)	inconclusive: 8.91 µM [inhibitor, partial curve, poor fit]	
O=C(O)c1ccc(N2N=C(c3ccccc3)CC2c2ccccc2)cc1 (stereo not drawn)	inconclusive: 22.4 µM [inhibitor, single point]	
COc1ccc(OC)c(NC(=O)C2(C)CCN2Cc2cccc(OC)c2F)c1 (stereo not drawn)	inconclusive: 28.2 µM [inhibitor, single point]	
CCOc1ccc(-c2cnc(NCc3cccc4ccccc34)n2CCOC)cc1	inconclusive: 31.6 µM [inhibitor, partial curve, poor fit]	
Cc1cc2nc(-c3cccc(Cl)c3)c(CC3CCCCC3)n2c(C)c1Br	inconclusive: 10 µM [inhibitor, single point]	
Cc1ccc(-c2nnc(Nc3ccccc3O)c3ccccc23)cc1	inconclusive: 28.2 µM [inhibitor, single point]	
CCCCCn1c(-c2ccco2)nc2nc3ccccc3nc21	inconclusive: 10 µM [inhibitor, single point]	
Cc1ccc2sc(-c3ccc(N)cc3)nc2c1	inconclusive: 8.91 µM [inhibitor, partial curve, poor fit]	
Cc1ccccc1C(=O)OC1CCN(C)CC1		inconclusive: -65.6% [inhibitor]
Cc1ccc(C)c(S(=O)(=O)NCCOc2nc(NC(C)C)nc(NC(C)C)n2)c1	inconclusive: 2.82 µM [inhibitor, full curve, poor fit]	
CCC(=O)N1CCc2cc(CNC(=O)c3ccccc3C)ccc21		inactive: 10.6%
O=C(Nc1cccc(Cl)c1N1CCCC1)c1cccc(-c2cc3ccccc3oc2=O)c1	inconclusive: 3.16 µM [inhibitor, partial curve, poor fit]	
CCCCC(=O)Nc1cnc(NC(=O)c2cccs2)cc1C	inconclusive: 11.2 µM [inhibitor, single point]	
COc1ccc(NS(=O)(=O)c2cccc(C(=O)NNC(=O)c3ccccc3O)c2)cc1	inconclusive: 8.91 µM [inhibitor, partial curve, poor fit]	
CCOC(=O)C1=CN(Cc2ccco2)S(=O)(=O)N(C)C1c1ccccc1 (stereo not drawn)		inactive: -5.22%
Cc1ccc(S(=O)(=O)CCSc2n[nH]c(=O)n2-c2ccccc2)cc1	inconclusive: 11.2 µM [inhibitor, single point]	
O=C(Nc1nccs1)c1sc2ccccc2c1Cl	inconclusive: 12.6 µM [inhibitor, single point]	
COC(=O)c1c(-c2ccccc2)nn(-c2ccccc2)c1C(=O)OC	inconclusive: 3.16 µM [inhibitor, partial curve, poor fit]	
